Read-outs that look alike come from different tables or passages of the source. No constants are given. Whether binding was seen depends on the method and setting. For some assays here: Binding seen in cells or lysates may run through a third protein. Some entries that bind do so weakly or less than the wild type. For some assays here: Where a sequence is shown, tags or fusion partners need not be part of it.
B1: Pou4f2D4 (a.a. 169-411) (domain or fragment, UniProt Q63934 169-411)
chain: LAGTHHHHHHHHHHHHQPHQALEGELLEHLSPGLALGAMAGPDGTVVSTPAHAPHMATMNPMHQAALSMAHAHGLPSHMGCMSDVDADPRDLEAFAERFKQRRIKLGVTQADVGSALANLKIPGVGSLSQSTICRFESLTLSHNNMIALKPILQAWLEEAEKSHREKLTKPELFNGAEKKRKRTSIAAPEKRSLEAYFAIQPRPSSEKIAAIAEKLDLKKNVVRVWFCNQRQKQKRMKYSAGI
B2: Pou4f3, full-length, His-tagged (protein, UniProt Q63955 1-338)
chain: MMAMNAKQPFGMHPVLQEPKFSSLHSGSEAMRRVCLPAPQLQGNIFGSFDESLLARAEALAAVDIVSHGKNHPFKPDATYHTMSSVPCTSTSPTVPISHPAALTSHPHHAVHQGLEGDLLEHISPTLSVSGLGAPEHSVMPAQIHPHHLGAMGHLHQAMGMSHPHAVAPHSAMPACLSDVESDPRELEAFAERFKQRRIKLGVTQADVGAALANLKIPGVGSLSQSTICRFESLTLSHNNMIALKPVLQAWLEEAEAAYREKNSKPELFNGSERKRKRTSIAAPEKRSLEAYFAIQPRPSSEKIAAIAEKLDLKKNVVRVWFCNQRQKQKRMKYSAVH
B3: Pou4f2, full-length, His-tagged (protein, UniProt Q63934 1-411)
chain: MMMMSLNSKQAFSMPHAGSLHVEPKYSALHSASPGSSAPAAPSASSPSSSSNAGGGGGGGGGGGGGGRSSSSSSSGSGGSGGGGGSEAMRRACLPTPPSNIFGGLDESLLARAEALAAVDIVSQSKSHHHHPPHHSPFKPDATYHTMNTIPCTSAASSSSVPISHPSALAGTHHHHHHHHHHHHQPHQALEGELLEHLSPGLALGAMAGPDGTVVSTPAHAPHMATMNPMHQAALSMAHAHGLPSHMGCMSDVDADPRDLEAFAERFKQRRIKLGVTQADVGSALANLKIPGVGSLSQSTICRFESLTLSHNNMIALKPILQAWLEEAEKSHREKLTKPELFNGAEKKRKRTSIAAPEKRSLEAYFAIQPRPSSEKIAAIAEKLDLKKNVVRVWFCNQRQKQKRMKYSAGI
B4: Pou4f2 expressed in HEK 293 cells (natural protein, mouse, UniProt Q63934 1-411, looked up)
chain: B3 chain
B5: Pou4f2D5 (a.a. 125-411) (domain or fragment, mouse, UniProt Q63934 125-411, looked up)
chain: SKSHHHHPPHHSPFKPDATYHTMNTIPCTSAASSSSVPISHPSALAGTHHHHHHHHHHHHQPHQALEGELLEHLSPGLALGAMAGPDGTVVSTPAHAPHMATMNPMHQAALSMAHAHGLPSHMGCMSDVDADPRDLEAFAERFKQRRIKLGVTQADVGSALANLKIPGVGSLSQSTICRFESLTLSHNNMIALKPILQAWLEEAEKSHREKLTKPELFNGAEKKRKRTSIAAPEKRSLEAYFAIQPRPSSEKIAAIAEKLDLKKNVVRVWFCNQRQKQKRMKYSAGI
notes: Pou4f2, mouse, a.a; 125-411, POU and homeo domains intact; source: E. coli, in lysate (pull-down); purified on His SpinTrap columns (EMSA); not shown: His tag, C-terminal, kept
B6: Pou4f2D1 (a.a. 1-260) (domain or fragment, UniProt Q63934 1-260)
chain: MMMMSLNSKQAFSMPHAGSLHVEPKYSALHSASPGSSAPAAPSASSPSSSSNAGGGGGGGGGGGGGGRSSSSSSSGSGGSGGGGGSEAMRRACLPTPPSNIFGGLDESLLARAEALAAVDIVSQSKSHHHHPPHHSPFKPDATYHTMNTIPCTSAASSSSVPISHPSALAGTHHHHHHHHHHHHQPHQALEGELLEHLSPGLALGAMAGPDGTVVSTPAHAPHMATMNPMHQAALSMAHAHGLPSHMGCMSDVDADPRDL
B7: Pou4f2D2 (a.a. 1-330) (domain or fragment, UniProt Q63934 1-330)
chain: MMMMSLNSKQAFSMPHAGSLHVEPKYSALHSASPGSSAPAAPSASSPSSSSNAGGGGGGGGGGGGGGRSSSSSSSGSGGSGGGGGSEAMRRACLPTPPSNIFGGLDESLLARAEALAAVDIVSQSKSHHHHPPHHSPFKPDATYHTMNTIPCTSAASSSSVPISHPSALAGTHHHHHHHHHHHHQPHQALEGELLEHLSPGLALGAMAGPDGTVVSTPAHAPHMATMNPMHQAALSMAHAHGLPSHMGCMSDVDADPRDLEAFAERFKQRRIKLGVTQADVGSALANLKIPGVGSLSQSTICRFESLTLSHNNMIALKPILQAWLEEAEK
B8: Pou4f2D3 (a.a. 240-411) (domain or fragment, UniProt Q63934 240-411)
chain: AHGLPSHMGCMSDVDADPRDLEAFAERFKQRRIKLGVTQADVGSALANLKIPGVGSLSQSTICRFESLTLSHNNMIALKPILQAWLEEAEKSHREKLTKPELFNGAEKKRKRTSIAAPEKRSLEAYFAIQPRPSSEKIAAIAEKLDLKKNVVRVWFCNQRQKQKRMKYSAGI
B9: Isl1D1 (a.a. 1-181) (domain or fragment, UniProt P61372 1-181)
chain: MGDMGDPPKKKRLISLCVGCGNQIHDQYILRVSPDLEWHAACLKCAECNQYLDESCTCFVRDGKTYCKRDYIRLYGIKCAKCSIGFSKNDFVMRARSKVYHIECFRCVACSRQLIPGDEFALREDGLFCRADHDVVERASLGAGDPLSPLHPARPLQMAAEPISARQPALRPHVHKQPEKT
B10: Isl1D2 (a.a. 1-284) (domain or fragment, UniProt P61372 1-284)
chain: MGDMGDPPKKKRLISLCVGCGNQIHDQYILRVSPDLEWHAACLKCAECNQYLDESCTCFVRDGKTYCKRDYIRLYGIKCAKCSIGFSKNDFVMRARSKVYHIECFRCVACSRQLIPGDEFALREDGLFCRADHDVVERASLGAGDPLSPLHPARPLQMAAEPISARQPALRPHVHKQPEKTTRVRTVLNEKQLHTLRTCYAANPRPDALMKEQLVEMTGLSPRVIRVWFQNKRCKDKKRSIMMKQLQQQQPNDKTNIQGMTGTPMVAASPERHDGGLQANPVEV

By UniProt entry, the sequences of proteins in these tests, tags left out.
UniProt P31360: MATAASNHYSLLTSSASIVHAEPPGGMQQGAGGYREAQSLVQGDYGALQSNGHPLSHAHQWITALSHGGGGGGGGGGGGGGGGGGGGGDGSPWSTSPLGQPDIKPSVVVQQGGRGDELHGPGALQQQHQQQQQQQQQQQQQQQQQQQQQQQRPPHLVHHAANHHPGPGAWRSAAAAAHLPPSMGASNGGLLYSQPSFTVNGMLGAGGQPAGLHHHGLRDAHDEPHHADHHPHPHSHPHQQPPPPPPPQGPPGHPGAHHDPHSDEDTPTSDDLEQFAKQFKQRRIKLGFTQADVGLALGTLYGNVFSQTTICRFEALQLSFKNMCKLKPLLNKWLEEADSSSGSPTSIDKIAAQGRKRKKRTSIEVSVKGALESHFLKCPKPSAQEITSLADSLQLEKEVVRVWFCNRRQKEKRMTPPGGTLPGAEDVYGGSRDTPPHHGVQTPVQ

Columns and labels:
[1] = target: T1, GST-Isl1 fusion protein (mouse) (UniProt P61372); assay: pull-down; GST pull-down: about 20 ug of GST or GST-fusion E. coli lysate and 20 ug of non-fusion protein lysate in 125 mM Tris-HCl, 150 mM NaCl, pH 8.0, 4 C; glutathione magnetic beads, 6 washes; Western blotting
T1 sequence: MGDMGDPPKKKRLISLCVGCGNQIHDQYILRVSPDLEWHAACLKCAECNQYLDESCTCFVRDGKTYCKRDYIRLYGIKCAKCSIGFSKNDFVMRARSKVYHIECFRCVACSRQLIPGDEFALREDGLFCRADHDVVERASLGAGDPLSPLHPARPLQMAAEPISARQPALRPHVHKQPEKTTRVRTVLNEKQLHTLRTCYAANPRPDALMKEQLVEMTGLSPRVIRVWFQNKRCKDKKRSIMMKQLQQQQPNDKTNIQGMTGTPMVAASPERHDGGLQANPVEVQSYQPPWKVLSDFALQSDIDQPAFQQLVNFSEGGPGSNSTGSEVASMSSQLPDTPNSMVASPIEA

[2] = target: T1, GST-Isl1 fusion protein (mouse); assay: as above; remark: listed apart in the source
[3] = target: T2, Isl1, full-length, His-tagged (mouse, UniProt P61372 1-349); assay: native gel or EMSA; EMSA with purified His-tagged proteins (200 ng each) and radiolabelled DNA probes (SBRN3, CBRN3; Ebf3 and Irx6 for Isl1 with Pou4f2D5); protein-protein complex read from a slower migrating ternary complex on DNA; 20 mM Tris-HCl pH 7.5, 0.05 M NaCl, 10 mM DTT, 1 mM EDTA, 5% glycerol, 4 C; both purified
T2 construct: Isl1, mouse, full-length coding region in pET-28a(+); 349 a.a; source: E. coli, in lysate (pull-down); purified on His SpinTrap columns (EMSA); not shown: His tag, C-terminal, kept
T2 sequence (looked up): T1 sequence

[4] = target: T3, Isl1 expressed in HEK 293 cells (mouse, UniProt P61372 1-349); assay: co-IP; HEK 293 cells co-expressing Isl1 and Pou4f2; lysate precipitated with rabbit anti-Isl1 or rabbit IgG and Protein A Dynabeads, 4 C; blot with goat anti-Pou4f2 and mouse anti-Isl1
T3 sequence (looked up): T1 sequence

[5] = target: T4, GST-Pou4f2 fusion protein (mouse) (UniProt Q63934); assay: pull-down; GST pull-down: about 20 ug of GST or GST-fusion E. coli lysate and 20 ug of non-fusion protein lysate in 125 mM Tris-HCl, 150 mM NaCl, pH 8.0, 4 C; glutathione magnetic beads, 6 washes; Western blotting
T4 sequence: B3 chain

[6] = target: T5, Pou4f2, full-length, His-tagged (mouse, UniProt Q63934 1-411); assay: native gel or EMSA; EMSA with purified His-tagged proteins (200 ng each) and radiolabelled DNA probes (SBRN3, CBRN3; Ebf3 and Irx6 for Isl1 with Pou4f2D5); protein-protein complex read from a slower migrating ternary complex on DNA; 20 mM Tris-HCl pH 7.5, 0.05 M NaCl, 10 mM DTT, 1 mM EDTA, 5% glycerol, 4 C; both purified
T5 construct: Pou4f2 (Brn3b), mouse, full-length coding region in pET-28a(+); 411 a.a; also called Brn3b; source: E. coli, in lysate (pull-down); purified on His SpinTrap columns (EMSA); not shown: His tag, C-terminal, kept
T5 sequence (looked up): B3 chain

| Molecule | binding [2] | binding [3] | further results |
| --- | --- | --- | --- |
| Pou3f2, full-length, His-tagged (from UniProt P31360 1-445) |  |  | binding [1]: binds |
| B1 | binds | binds |  |
| B2 | binds |  |  |
| B3 | binds |  |  |
| B4 |  |  | binding [4]: binds |
| B5 | binds |  |  |
| B6 | no binding | no binding |  |
| B7 | no binding | no binding |  |
| B8 | no binding | no binding |  |
| B9 |  |  | binding [5]: no binding; binding [6]: no binding |
| B10 |  |  | binding [5]: no binding; binding [6]: no binding |
